Test results reported in PubChem BioAssay AID1345082 (National Center for Advancing Translational Sciences (NCATS), 2018).
In all, about 94,000 compounds went through this assay and about 4,000 (4.3%) were called active. Inconclusive results, whose numbers are uncertain, are shown with a selection of clear calls. Calls follow the shape of the dose curve; as a rule, active = well fitted inhibition curve with a large enough effect; inconclusive = small, poorly fitted or top-dose-only effect; inactive = no such curve, though single readings can be large or run the other way. A potency beside an inconclusive call is a rough fit, not a confirmed value.

assay: Cytotoxic Profiling in NIH 3T3 Cell Line of Diverse Libraries Using Quantitative High-Throughput Screening; conditions: NIH 3T3 viability, CellTiter-Glo ATP luminescence, 48-72 h; activity change, negative = cytotoxicity: at 96.7 µM (top of the series); series mostly up to 96.7 µM; also: nearly all actives have a fitted effect of over 55% in size
Summary of the method: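 Viability of NIH 3T3 cells after 48 or 72 hr compound treatment at 37 °C was assessed by CellTiter-Glo, with luminescence imaged following a 10 min room-temperature step.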
% is scaled to controls: 0 for no effect and ±100 for the full control effect; potency is read from the fitted curve at half-maximal effect; tags tell the direction and shape of the fitted curve.

Compound | Potency | outcome | activity change, negative = cytotoxicity
CN1CCN(C(=O)c2ccc3c(c2)NC(C)(CCCCc2ccccc2)CO3)CC1=O (centres undefined) | inconclusive: 56.2 µM [inhibitor, partial curve, poor fit] |  | 
CCOC(=O)C1(Cc2ccccc2F)CCCN(C(=O)CCc2c[nH]c3ccccc23)C1 (centres undefined) | inconclusive: 44.7 µM [inhibitor, partial curve, poor fit] |  | 
CCc1nc2c(c(-c3ccc(OC)cc3)n1)CN(C(=O)c1ccc(OC)cc1)CC2 | inconclusive: 70.8 µM [inhibitor, single point] |  | 
CCc1ccccc1NC(=O)c1cc2c(=O)[nH]c(C)cn2n1 |  | inactive | 
O=C(NCc1ccc(F)c(F)c1)c1nc2sccn2c1-c1ccccc1 | inconclusive: 50.1 µM [inhibitor, partial curve, poor fit] |  | 
CCN1c2cc(C(=O)NCc3ccccc3)ccc2C(=O)N2CCCCCC21 (centres undefined) |  |  | inactive: -24.4%
O=C(c1cccs1)N1CCC(n2cc(-c3nc(-c4ccccc4)no3)nn2)CC1 | inconclusive: 44.7 µM [inhibitor, partial curve, poor fit] |  | 
O=C(O)CCC(=O)N1CCCC2(Cc3ccccc3N(C(=O)C3CCCC3)C2)C1 (centres undefined) | inconclusive: 79.4 µM [inhibitor, partial curve, poor fit] |  | 
c1ccc(-c2cc3c(cn2)CN(Cc2c[nH]c4ccccc24)CCN3)cc1 | inconclusive: 22.4 µM [inhibitor, full curve, poor fit] |  | 
C[C@H]1[C@@H]2[C@@H](O)C([C@H](C)C(=O)NC3CCCCC3)CC[C@@]2(C)CC[C@@H]1NC(=O)Cc1ccccc1 (some centres undefined) | inconclusive: 56.2 µM [inhibitor, partial curve, poor fit] |  | 
CC1(C(=O)N2CCN(c3ccccn3)CC2)CCCc2cnc(Nc3cccnc3)nc21 (centres undefined) | inconclusive: 28.2 µM [inhibitor, full curve] |  | 
O=C(C1CCCC1)N1CCCC2(CNc3ncccc3[S+](=O)([O-])N2)C1 (centres undefined) |  | inactive | 
COc1ccc(C(=O)N2CCN(C(=O)c3nc4cccnc4n(-c4ccccc4OC)c3=O)CC2)cc1 |  |  | inactive: -1.62%
COCCNC(=O)c1cnc2c(c1)N(C(=O)Cc1cn(C)c3ccccc13)CCC2 | inconclusive: 100 µM [inhibitor, single point] |  | 
Cc1ccccc1CN1Cc2nc(N3CCCC3)ccc2OCC1=O | inconclusive: 39.8 µM [inhibitor, partial curve, poor fit] |  | 
COc1ccc(F)cc1-c1ccc(CN2CCCCC2C(=O)NCc2ccc(C(F)(F)F)cc2)cc1 (centres undefined) | inconclusive: 31.6 µM [inhibitor, full curve] |  | 
c1csc(CN2Cc3[nH]cnc3C[C@H]2c2nc(-c3ccncc3)no2)c1 | inconclusive: 56.2 µM [inhibitor, partial curve, poor fit] |  | 
Cc1noc([C@@H]2CN(C(=O)c3cscn3)C[C@H]2C(N)=O)n1 | inconclusive: 50.1 µM [inhibitor, partial curve, poor fit] |  | 
Cc1nnc(-c2cc(-c3cccc(F)c3)ccn2)n1Cc1ccccc1 | inconclusive: 89.1 µM [inhibitor, partial curve, poor fit] |  | 
O=C1CO[C@H]2CCN(Cc3cccnc3)CC[C@@H]2N1Cc1ccccc1 | inconclusive: 35.5 µM [inhibitor, partial curve, poor fit] |  | 

Compound | Potency | outcome | activity change, negative = cytotoxicity
COc1ccc(CNc2cc(Cl)nc3ccnn23)cc1 | inconclusive: 56.2 µM [inhibitor, partial curve, poor fit] |  | 
COc1cccc(C(=O)NC2CCN(c3ccc4nnc(-c5ccccc5)n4n3)CC2)c1 | inconclusive: 56.2 µM [inhibitor, partial curve, poor fit] |  | 
COc1ccccc1Nc1ccnc(N2CCC(C(=O)NCCc3ccc(F)cc3)CC2)n1 | inconclusive: 50.1 µM [inhibitor, partial curve, poor fit] |  | 
NC(=O)NCCC(=O)N1CCc2onc(C(c3ccccc3)c3ccccc3)c2C1 | inconclusive: 79.4 µM [inhibitor, single point] |  | 
COc1cccc(Nc2cnc3ccc(N4CCOCC4)nn23)c1 | inconclusive: 50.1 µM [inhibitor, partial curve, poor fit] |  | 
COc1ccc(-c2cnc(Nc3ccc(CN4CCN(C)CC4)cc3)c3c2CCO3)cn1 | active: 28.2 µM |  | 
Cn1ncc2c(C(=O)Nc3cccc(C(F)(F)F)c3)cc(-c3ccccc3C(F)(F)F)nc21 | active: 28.2 µM |  | 
CN1CCCCCCN(S(=O)(=O)c2cccc(F)c2)[C@H]2CCC[C@H]2C1=O | inconclusive: 50.1 µM [inhibitor, partial curve, poor fit] |  | 
O=C1NC(=NC2CCCC2)C2(CCCN(Cc3ccc(F)cc3)C2)N1c1cc(F)cc(F)c1 (centres undefined) | inconclusive: 50.1 µM [inhibitor, partial curve, poor fit] |  | 
COc1ccccc1-c1nccc2c(=O)cc(C3=CCOCC3)oc12 | active: 12.6 µM |  | 
CC#CCn1cc2c3c(cccc31)[C@H](CC(C)C)N[C@H](C(=O)NC1CC1)C2 | inconclusive: 56.2 µM [inhibitor, partial curve, poor fit] |  | 
Cc1noc(C)c1CC(=O)NC1CCCc2c1[nH]c1ccc(F)cc21 (centres undefined) | inconclusive: 15.8 µM [inhibitor, full curve, poor fit] |  | 
COc1ccc(C)cc1NC(=O)Cn1c(-c2ccc(Cl)cc2)nc(C)c(CCO)c1=O |  |  | inactive: -0.935%
O=C(c1cnc(Cc2c(Cl)cccc2Cl)[nH]c1=O)N1CCCCC1 |  |  | inactive: -2.78%
COc1cccc2c1OCC(CNC(=O)CCc1cn3ccccc3n1)C2 (centres undefined) |  |  | inactive: 0.247%
COc1cccc(CNC(=O)c2ccc3oc(-c4ccccn4)nc3c2)c1 | inconclusive: 31.6 µM [inhibitor, full curve] |  | 
O=C(NCc1ccncc1)C1CN(S(=O)(=O)c2cccs2)CC12CCCCC2 (centres undefined) |  |  | inactive: -8.98%
O=c1[nH]c2cccnc2n1C1CC1 |  |  | inactive: -3.92% [at 174 µM]
O=S(=O)(c1ccc(F)cc1)N1CCC2(CC1)CC(OCC1CC1)CCO2 (centres undefined) | inconclusive: 35.5 µM [inhibitor, partial curve, poor fit] |  | 
